The source of these data is article PMC12136788.

The list shows a part of the results.

Sequences and labels used below:
B1: chr1:53952023:53952124:+|CDS|ENSG00000116212|msi1|FALSE|unique (ssRNA)
RNA: GGGAGUUCUACAGUCCGACGAUCUACAUGCGAGAAAAUGGGCAGCUGCACAUGGUCAAUCUGGCUCUGGAUGGUGUCAGGAGUAGCCUGCAGAAGCCAAGGCCUUUCAGACUGUUCCCCAAAGGCUUUUCUGUGGAGCUUUGCCAACAGAGGAUUGAGCAUCA
B2: chr1:42696720:42696786:+|CDS|ENSG00000065978|msi1_unk|FALSE|overlapping (ssRNA)
RNA: GGGAGUUCUACAGUCCGACGAUCCCAGUUCAAGGCAGUAAAUAUGCAGCAGACCGUAACCAUUAUAGACGCUAUCCACGUCGUAGGGGUCCUCCACGCAAUUACCAGCAAAAUUACCAGAAUAGUGAGAGUGGGGAAAAGAACCAACAGAGGAUUGAGCAUCA
B3: ENSG00000124766:be:win_1851|3pUTR|ENSG00000124766|bound_else_gene|NA|bound_elsewhere_windowed (ssRNA)
RNA: GGGAGUUCUACAGUCCGACGAUCAGAGACUUGAAGGAGUCUCCCCCUUCCUGCAUCACCACCUUGGUUUUGUUUUAUUUUGCUUCUUGGUCAAGAAAGGAGGGGAGAACCCAGCGCACCCCUCCCCCCCUUUUUUUAAACGCGCAACAGAGGAUUGAGCAUCA
B4: chr1:66363429:66363538:+|CDS|ENSG00000184588|unk|total|mutant (ssRNA)
RNA: GGGAGUUCUACAGUCCGACGAUCAGACCUCCUAAAGACAUUCAGAAUCUCAUCUGACACAUUUAUAACCUACAUGAUGACUUCCGAAGACCAUUACCAUUCUGACGUGGCAUAUCACAACAGCCUGCACGCUGCUGAUGCCGCCAACAGAGGAUUGAGCAUCA
B5: chrX:56565067:56565173:+|CDS|ENSG00000188021|unk|FALSE|unique (ssRNA)
RNA: GGGAGUUCUACAGUCCGACGAUCAGAAGCAUGAUGCAGUCGCUGAGCCAGAAUCCAGAUUUGGCUGCACAGAUGAUGCUGAAUAGCCCGCUGUUUACUGCAAAUCCUCAGCUGCAGGAGCAGAUGCGGCCACAGCUCCCAGCCCAACAGAGGAUUGAGCAUCA
B6: chr2:96252317:96252350:-|3pUTR|ENSG00000135956|msi1_unk|total|mutant (ssRNA)
RNA: GGGAGUUCUACAGUCCGACGAUCGUGUCCCCUGCUGAGCUGAAAAGGAAAUGGAUUCCAAUCUCUUCCAACCUUUAAGGUGACCGACCGUUUGAGCAAGACUGGAGAAUGGACAACACUAUGAAGCUGUGGCCCGAAAGGGACCAACAGAGGAUUGAGCAUCA
B7: chr14:55188946:55189174:-|CDS|ENSG00000126787|unk|FALSE|unique (ssRNA)
RNA: GGGAGUUCUACAGUCCGACGAUCAUUGCUCAUAGGAAAUCACUGUCUCAGAAAGAAAAUAGACAUAAGGAAUACGAACGAAAUAGACACUUUGGUUUGAAAGAUGUAAACAUUCCAACCUUGGAAGGUAGAAUUCUUGUUGAACAACAGAGGAUUGAGCAUCA
B8: chr6:43186014:43186115:+|CDS|ENSG00000112659|msi1|FALSE|unique (ssRNA)
RNA: GGGAGUUCUACAGUCCGACGAUCCUGCUUUUCUCCUUGGUGAAGCGCUACCUUUGUGUCACGUCCCUCCUGGAUCAGCUGAAUAGCAGUCCAGAGCUGGGAGCUGGAGACCAAAGCUCCCCAUGUGCCACAAGAGAGAAAAGCCAACAGAGGAUUGAGCAUCA
B9: chr22:36489384:36489485:-|3pUTR|ENSG00000100350|msi1|total|mutant (ssRNA)
RNA: GGGAGUUCUACAGUCCGACGAUCGUGUCACUUGCCACACACUGCCUCAACCUCCCCGCCCCAUUUUCAGCAGGGUUUGGGCUCCGCUACAGAGCCCAAGAGGGUCAGCCCUGCUUAUCAUCACCGGCCCAGCAGGCUGAUCUCCAACAGAGGAUUGAGCAUCA
B10: chrX:12823584:12823685:+|3pUTR|ENSG00000101911|unk|FALSE|unique (ssRNA)
RNA: GGGAGUUCUACAGUCCGACGAUCUGACUUAAAGGUAAUCAUUUCAGCUAAGAUUAAAUUUAAAGCCUAAGAAUGUAUAGAGCUAGUUUUAAAAUAAUGAUCUCAGAUUUUUAAAAAGGAUAUAGGAACCUGCAUUGUCAUUCUCAACAGAGGAUUGAGCAUCA
B11: chr11:46743636:46743700:-|3pUTR|ENSG00000175216|msi1_unk|total|mutant (ssRNA)
RNA: GGGAGUUCUACAGUCCGACGAUCUUGUAAAAUUGUCCUAAUCUUUCCCCGCUUUUUAACCGUUAAUAUCCGAAACUCUUUAACCGUUUUCCUUUCAGUUUGUGAGCUCUUCUCUGUCGCCCUGAAGGGUCACUGUAUUCUGUACAACAGAGGAUUGAGCAUCA
B12: chr13:52475664:52475769:+|3pUTR|ENSG00000136108|msi1|total|mutant (ssRNA)
RNA: GGGAGUUCUACAGUCCGACGAUCGCGUCCCUUGGACUGCCUGUUGAUUGAUGGAAAGUGUCUGCACUGACACUUUUCGUCAGCCGUCUGCCGUUUCGUGGCCUCUUUUGAUUAUAACUGGGGUCACCAAGAAGGUUUACUUAACAACAGAGGAUUGAGCAUCA
B13: chr12:122271799:122271900:-|3pUTR|ENSG00000130779|msi1|total|mutant (ssRNA)
RNA: GGGAGUUCUACAGUCCGACGAUCGUAUAAAACACCUAAAUAACCAAUCUACAAUCUCCCUUCACAAGUUUUUUUACUGUUUUCCGAUGAAUGUACGAUGAGAAAUUCAACGUUAAUAAUUCUGGAUUUUCUUAUCACAAAAAACAACAGAGGAUUGAGCAUCA
B14: chr1:228098150:228098251:+|3pUTR|ENSG00000143761|msi1_unk|FALSE|overlapping (ssRNA)
RNA: GGGAGUUCUACAGUCCGACGAUCGCACCGUGCUGUAAAUGUGGCAGACGCAGCCUGCGGCCAGGCUUUUUAUUUAAUGUAAAUAGUUUUUGUUUCCAAUGAGGCAGUUUCUGGUACUCCUAUGCAAUAUUACUCAGCUUUUUUCAACAGAGGAUUGAGCAUCA

This assay deals with MSI1 full-length (mouse, UniProt Q61474 1-362). The experiment in a line: nsRBNS (natural sequence RNA bind-n-seq); RBNS binding buffer (assumed for nsRBNS): 25 mM Tris pH 7.5, 150 mM KCl, 3 mM MgCl2, 0.01% Triton X-100, 500 ug/ml BSA, 20 U/ml SUPERase-In, 4 C; UNK is unkempt and MSI1 is Musashi-1; names of the RNAs are library labels; protein concentration not given here; high values mean tight binding.
Chain of UniProt Q61474 (Q61474 whole entry): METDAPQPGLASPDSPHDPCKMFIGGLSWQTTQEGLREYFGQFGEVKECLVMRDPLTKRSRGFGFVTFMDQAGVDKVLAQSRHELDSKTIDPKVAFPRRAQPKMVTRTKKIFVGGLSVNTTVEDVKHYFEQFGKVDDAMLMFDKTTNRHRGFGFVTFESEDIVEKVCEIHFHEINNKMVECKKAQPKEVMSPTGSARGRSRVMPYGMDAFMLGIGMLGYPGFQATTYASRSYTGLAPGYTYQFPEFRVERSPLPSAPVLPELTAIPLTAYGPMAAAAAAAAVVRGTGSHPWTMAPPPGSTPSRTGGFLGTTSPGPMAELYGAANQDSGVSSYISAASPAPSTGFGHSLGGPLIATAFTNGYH
Turning to B1, the binding signal amounted to 0.863 enrichment R.

B2 came in with a binding signal of 2.75 enrichment R.

For B3, the binding signal was 0.505 enrichment R.

In turn, B4 gave a binding signal of 0.448 enrichment R.

Molecule B5 registered a binding signal of 0.328 enrichment R.

In turn, B6 yielded a binding signal of 0.439 enrichment R.

Turning to B7, the binding signal was 1.76 enrichment R.

Molecule B8 had a binding signal of 0.311 enrichment R.

Take B9: the binding signal stood at 0.593 enrichment R.

Regarding B10, the binding signal is 9.66 enrichment R.

B11 displayed a binding signal of 0.866 enrichment R.

In the case of B12, the binding signal amounted to 0.245 enrichment R.

Molecule B13 displayed a binding signal of 0.881 enrichment R.

As for B14, the binding signal was found to be 1.63 enrichment R.
